This is one part of the list.
molecular target: T1, OsWOX13 (Oryza sativa, UniProt Q5QMM3 1-267); test: protein-binding microarray (RPBM); PBS, 2% BSA, 51.3 ng/ul salmon testes DNA, 50 uM zinc acetate, 200 nM TF, 25 C, 1 h; high values mean tight binding; settings: protein: recombinant; tags: N-terminal polyhistidine and DsRed monomer fusion (pET32a); label: CyDye5-dUTP incorporated in the synthesized complementary strand; 3' TTTTT single-stranded linker to array surface; dsDNA, one strand shown
T1 sequence: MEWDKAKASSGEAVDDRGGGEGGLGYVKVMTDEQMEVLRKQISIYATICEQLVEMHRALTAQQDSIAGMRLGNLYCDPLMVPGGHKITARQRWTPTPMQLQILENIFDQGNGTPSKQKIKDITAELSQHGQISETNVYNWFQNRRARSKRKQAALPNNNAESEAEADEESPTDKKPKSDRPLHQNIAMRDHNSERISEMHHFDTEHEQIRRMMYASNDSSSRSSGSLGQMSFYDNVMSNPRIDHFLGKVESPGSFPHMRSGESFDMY
Procedure, shortened: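 The binding signal is fluorescence intensity per array feature (arbitrary units). Readings came from an Axon 4000B scanner after a washed, 2% BSA-blocked, double-stranded custom Agilent array had been incubated for 1 h at 25 °C with 200 nM protein and 50 µM zinc acetate. The protein was a Ni–NTA-purified transcription factor fused N-terminally to polyhistidine and DsRed, expressed in E. coli BL21-CodonPlus.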

Sequence | binding signal
AATTAGATTAATACAAATATATGGTGGCAGTAATTGGATACGGAGTCACCTAGTGCAG | 9430 fluorescence intensity (a.u.)
CATATTAAACGAACTGATTGCAAGAATTCAGTAAGAACTTCGGAGTCACCTAGTGCAG | 13800 fluorescence intensity (a.u.)
CCTAGCTAATTTGTGCCACCTTAGATATGTTCTTAACATCCGGAGTCACCTAGTGCAG | 5100 fluorescence intensity (a.u.)
GGTTTCTTTAATTATGTAACGTCTATGCCGACAAATAATGCGGAGTCACCTAGTGCAG | 6580 fluorescence intensity (a.u.)
AAACAAGGCCTCCACCTGATTGATATCCCTTTGTCATCATCGGAGTCACCTAGTGCAG | 12500 fluorescence intensity (a.u.)
TTTAATTTGTATTGGCTACAGGCTCACACGCTAACCATGACGGAGTCACCTAGTGCAG | 11800 fluorescence intensity (a.u.)
GTAAACGACAACCTTAATTACTTCTCAAATTTTATCATGTCGGAGTCACCTAGTGCAG | 9580 fluorescence intensity (a.u.)
ATCTGTAATTTATTTTATTATTAGTCTACGCTTAATACTTCGGAGTCACCTAGTGCAG | 22000 fluorescence intensity (a.u.)
GCTGATAAATTACTAGTTGTCATTCATTAACCATTTATTGCGGAGTCACCTAGTGCAG | 7720 fluorescence intensity (a.u.)
CAGTTAATAGAATAGAAAGGTGATGTGGTCCCGCACCTGACGGAGTCACCTAGTGCAG | 8410 fluorescence intensity (a.u.)
GGATGAAACATCAATATTAATTGAACTACAATTTCTCAAACGGAGTCACCTAGTGCAG | 5040 fluorescence intensity (a.u.)
ATCATAATTGAAGCTTCTCCTTGAAACAAGCAACCACATGCGGAGTCACCTAGTGCAG | 44700 fluorescence intensity (a.u.)
TTCATGGATGACTTAATGGATTAGGAATAATTACTTATAGCGGAGTCACCTAGTGCAG | 5970 fluorescence intensity (a.u.)
ATATAGATTGATAATTTAAAAGTAAAAGTAAGGTGATGTACGGAGTCACCTAGTGCAG | 40500 fluorescence intensity (a.u.)
GTCTTGATTAATTTTAGAAAGACAGGCAGCACACGCTTTCCGGAGTCACCTAGTGCAG | 42100 fluorescence intensity (a.u.)
GCTCATGATTTTCTATATATATATCCAAGCGAACTCCCACCGGAGTCACCTAGTGCAG | 7150 fluorescence intensity (a.u.)
GTTCTGACGTTAATTTCGTGCTTGTTATTTAGTTGTATAGCGGAGTCACCTAGTGCAG | 4050 fluorescence intensity (a.u.)
GCGGTTGATATGATAAAGATGAATTATAATGCACTAAACGCGGAGTCACCTAGTGCAG | 4440 fluorescence intensity (a.u.)
GTTGATAAATGCAAATATAATGTGTAATAACTGATGAGTTCGGAGTCACCTAGTGCAG | 12100 fluorescence intensity (a.u.)
AATTTGATTACAATTCGGACATAAGCATGATATATTTTACCGGAGTCACCTAGTGCAG | 10900 fluorescence intensity (a.u.)
GGGTTAATTAGCTTTCACCATATATTGATGAAGTAATTGACGGAGTCACCTAGTGCAG | 45800 fluorescence intensity (a.u.)

Sequence | binding signal
CATGGTGTTTTGATTAATGTGATTTAAATTATACTTGGTCCGGAGTCACCTAGTGCAG | 23900 fluorescence intensity (a.u.)
CCACCATTCTTTTATTGATTTATGTGTGAGACTGACATGTCGGAGTCACCTAGTGCAG | 8450 fluorescence intensity (a.u.)
CTCGCCCTTGATTGGTTCGATACACGTTTTCCCCTCGTTTCGGAGTCACCTAGTGCAG | 38200 fluorescence intensity (a.u.)
GTGATATATGTGATTGACCAAACATACAGGTACAGTAATTCGGAGTCACCTAGTGCAG | 28100 fluorescence intensity (a.u.)
GTTTTAATCATATATATCAATATGTGCTAATGCTATAGCACGGAGTCACCTAGTGCAG | 5290 fluorescence intensity (a.u.)
AATAATTTATTTGCGAACTTAATATCATTATCATTGTTGTCGGAGTCACCTAGTGCAG | 29200 fluorescence intensity (a.u.)
ATTTCCACTAATGATCATTACCTGTAATTCAAGCCCCTCTCGGAGTCACCTAGTGCAG | 3570 fluorescence intensity (a.u.)
ATTTGATATATGCAAATTTAGTACTAGCCCCACACATATTCGGAGTCACCTAGTGCAG | 4560 fluorescence intensity (a.u.)
TTTAATTATTTGTCCGACAAGTTTCCAAACAATCTAAATACGGAGTCACCTAGTGCAG | 3880 fluorescence intensity (a.u.)
AAAGATTAACTTAGGTGGGAAGGACAACGAATCTGAATCCCGGAGTCACCTAGTGCAG | 3190 fluorescence intensity (a.u.)
GCATGTTCGTCACAATCAATTAATGCATACTGATAGTGATCGGAGTCACCTAGTGCAG | 30200 fluorescence intensity (a.u.)
TGTGGCTTAATTAGTTCAAGTAGCAGCTCCTCCTGCAGTCCGGAGTCACCTAGTGCAG | 9370 fluorescence intensity (a.u.)
GTAATTTAATATGAGCTTCATTGGTGCAACAGTGGTGTGTCGGAGTCACCTAGTGCAG | 3180 fluorescence intensity (a.u.)
GCCTTTCTCATTTTCTTTTCTTTTCCTTTTGTCCTCAGAACGGAGTCACCTAGTGCAG | 4070 fluorescence intensity (a.u.)
TTGGAATTTGGGGATTGGGAAGAGAGAAATCAGATTGGAACGGAGTCACCTAGTGCAG | 4300 fluorescence intensity (a.u.)
GCCAAATTGACAGAGTTACCTCGCTATATAAGGCTGCCCACGGAGTCACCTAGTGCAG | 57600 fluorescence intensity (a.u.)
GGTGGTGGTGGTGGAGAGAGAGAGGAGTGCGTCGCCGACGCGGAGTCACCTAGTGCAG | 9000 fluorescence intensity (a.u.)
AAAATTACAGTGTAATTACATCATAACTTACGTGTAATTACGGAGTCACCTAGTGCAG | 15200 fluorescence intensity (a.u.)
CTTTCCAAAACTTCAATCACAACACAATAACATCCACCACCGGAGTCACCTAGTGCAG | 13200 fluorescence intensity (a.u.)
CTTAATTTGTCACCGAATCCGATTTTCGTACCTCAACCAACGGAGTCACCTAGTGCAG | 24700 fluorescence intensity (a.u.)
ATAAAATAGTTGACTGGCTATCTTCTACTCCACTTGGTATCGGAGTCACCTAGTGCAG | 5320 fluorescence intensity (a.u.)

Sequence | binding signal
CATAAACCAAAATTTGAATACAAATTCCTTGAGTTTACCGCGGAGTCACCTAGTGCAG | 5990 fluorescence intensity (a.u.)
AGATGTGATGGGATTGAATCCCATGAATCCAACCAACGGCCGGAGTCACCTAGTGCAG | 10600 fluorescence intensity (a.u.)
ATCCAATTAACATCCCAATCCGAGCCAAATATTATCAAACCGGAGTCACCTAGTGCAG | 14800 fluorescence intensity (a.u.)
TCTGATTCATTGTTAAATATACTTTCATGTAGACATGTAGCGGAGTCACCTAGTGCAG | 7600 fluorescence intensity (a.u.)
GGCTGCAGTCAGTTTGGATCCAATCATCCAACTGGGATCACGGAGTCACCTAGTGCAG | 6410 fluorescence intensity (a.u.)
CCAATTGACTATATATAACATAGTACTTGCTAGCTTAATTCGGAGTCACCTAGTGCAG | 3640 fluorescence intensity (a.u.)
AATATACTGACTTGAGTGACTGAATGGAGGGGAAATCTGTCGGAGTCACCTAGTGCAG | 5680 fluorescence intensity (a.u.)
ATCCGCATTAACATATTTAATCACACGTGTTATCTCAAACCGGAGTCACCTAGTGCAG | 7030 fluorescence intensity (a.u.)
CCTTTTCTATTTACAAATCAATTTCATATGGTCTCTGAAGCGGAGTCACCTAGTGCAG | 4580 fluorescence intensity (a.u.)
TCTGCTTTGAAAAGATAATTAATTAAGATGTACTCCCTCCCGGAGTCACCTAGTGCAG | 8000 fluorescence intensity (a.u.)
GCATAGTCGATTAATTAATTGTAAGCCCATCGAATTACACCGGAGTCACCTAGTGCAG | 22600 fluorescence intensity (a.u.)
GGACTATCACCACTAAATTGAGGGCACAACATTGGCGGCACGGAGTCACCTAGTGCAG | 6590 fluorescence intensity (a.u.)
GACTTGGAGTGATTTGCTCTCAACAGTAGAGAGTTGTTGGCGGAGTCACCTAGTGCAG | 4800 fluorescence intensity (a.u.)
GTTATAAATTTAAGATGACATGATTCAAGTAATTTTAGTTCGGAGTCACCTAGTGCAG | 9730 fluorescence intensity (a.u.)
CTCTAATACTGATTACTGATTGCATACCTGTTCCCTTAGGCGGAGTCACCTAGTGCAG | 24700 fluorescence intensity (a.u.)
ACTAGATTACTCACAGTTGTTAGGGATGAGGTGAGGGCACCGGAGTCACCTAGTGCAG | 3660 fluorescence intensity (a.u.)
CTTAACTGAGAATTGATGTTTCTGTGGTGGATTTGGTCAGCGGAGTCACCTAGTGCAG | 46900 fluorescence intensity (a.u.)
CTCAGCAATAGACTAGATTAATAGTAAATCACCTTAATAGCGGAGTCACCTAGTGCAG | 3230 fluorescence intensity (a.u.)
ATGATTGTCAACTCAACTGAACCTGAACCAGTTTTACCTACGGAGTCACCTAGTGCAG | 10800 fluorescence intensity (a.u.)
ATTGTGGATTTTAATTTTAATTGCTTTCTGAAAATATTTTCGGAGTCACCTAGTGCAG | 3780 fluorescence intensity (a.u.)
AAATTTTCAGATAATTTTGTGTTATGTGTAGACCTCGACGCGGAGTCACCTAGTGCAG | 3680 fluorescence intensity (a.u.)

Sequence | binding signal
AATAAATGAACATTATATTTTCAAATTTAATTCGCTGCTTCGGAGTCACCTAGTGCAG | 9520 fluorescence intensity (a.u.)
CTAATGAAATGATTGGTCCACGAGACAGAGCCACCGACCGCGGAGTCACCTAGTGCAG | 31900 fluorescence intensity (a.u.)
CTCATGATTAAGGCTTTATTCAGAGGCACTTACTGTTGTACGGAGTCACCTAGTGCAG | 11600 fluorescence intensity (a.u.)
AATTATTAATTTTACCAAATTAATGGTATGGTTTAAAATGCGGAGTCACCTAGTGCAG | 33200 fluorescence intensity (a.u.)
CTAATTTTAACGTGAACTAAATATACCCTCAATTAAACTTCGGAGTCACCTAGTGCAG | 5580 fluorescence intensity (a.u.)
TTTTGATTGGGCCGATCTCTAGCCCATATATACGTGTAGGCGGAGTCACCTAGTGCAG | 29300 fluorescence intensity (a.u.)
GGTGGATGAGAATGGATTGAATGAAAACAACAACATATTACGGAGTCACCTAGTGCAG | 7970 fluorescence intensity (a.u.)
ACCAAATTTTGACAATATCAAAATTTTAATAAGTTGGCAACGGAGTCACCTAGTGCAG | 7990 fluorescence intensity (a.u.)
AACTAATTGGTGAACGGTTGCTCGCAGAACCATTAATTGACGGAGTCACCTAGTGCAG | 22500 fluorescence intensity (a.u.)
GACTAACCTGCCTAATTGTCACAGGTCCCACTAGTTCTTGCGGAGTCACCTAGTGCAG | 3440 fluorescence intensity (a.u.)
GCTGACGAGCTCAAGCATAGCCTCCATTACGGACACGCCTCGGAGTCACCTAGTGCAG | 3210 fluorescence intensity (a.u.)
CTGAGACAAATAATGACAATAATTTGTCTACAATCAATCCCGGAGTCACCTAGTGCAG | 16600 fluorescence intensity (a.u.)
ATTAATTACCAGGTTTGTTATCGCATTCGAGGATGTGCACCGGAGTCACCTAGTGCAG | 24300 fluorescence intensity (a.u.)
GCAAATTGAAATGAACTTAATCCTAAACTTTTCCTAGTACCGGAGTCACCTAGTGCAG | 40800 fluorescence intensity (a.u.)
TAATAACTTATACTGATATTGATTACTCCCTCCATCCCTACGGAGTCACCTAGTGCAG | 11800 fluorescence intensity (a.u.)
AACTGATTAATGGCGTTTGTAATTATTCTAGATGGAGAGGCGGAGTCACCTAGTGCAG | 44400 fluorescence intensity (a.u.)
TCGAAATGATTTCAGTGAATTTCGTTCAAAATTCGACACACGGAGTCACCTAGTGCAG | 4410 fluorescence intensity (a.u.)
CTGATTAATTGACCCACCGACTAAACTTGCACAGTCACCACGGAGTCACCTAGTGCAG | 50500 fluorescence intensity (a.u.)
CAAAACAAATTACAGATTGCGCATGTAAACTACGAGACGACGGAGTCACCTAGTGCAG | 19900 fluorescence intensity (a.u.)
GAGATTGAAGAGAAGGCAAAATCTTTAGCAACCTGCACTTCGGAGTCACCTAGTGCAG | 15900 fluorescence intensity (a.u.)
ATTTATAAACATAATCAGTTTAGATAGTATAGATAGTAGCCGGAGTCACCTAGTGCAG | 3220 fluorescence intensity (a.u.)
